Data reported in the supplement of paper PMC12217912.
Some of the results follow. Sequences were assembled here from the parent chain. Inactive controls read about 0.05.

B1: TEV protease; numbered along this chain (parent)
chain: MGESLFKGPRDYNPISSSICHLTNESDGHTTSLYGIGFGPFIITNKHLFRRNNGTLVVQSLHGVFKVKDTTTLQQHLVDGRDMIIIRMPKDFPPFPQKLKFREPQREERICLVTTNFQTKSMSSMVSDTSCTFPSGDGIFWKHWIQTKDGQCGSPLVSTRDGFIVGIHSASNFTNTNNYFTSVPKNFMELLTNQEAQQWVSGWRLNADSVLWGGHKVFMVKPEEPFQPVKEATQL

Variants of: B1
Test: raw area under fraction-flipped curve 0-4 h after induction (AUC4h, not background-subtracted), DNA-recorder readout of cleavage of the substrate (dimensionless); higher = more cleavage of the substrate by the protease variant
Settings: temperature: 34 °C; time window: 0-4 h after rhamnose induction
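Also: Bxb1 expression induced with 0.2% (w/v) L-rhamnose at OD600 near 0.5, cultures sampled hourly, flipped fraction per protease–substrate barcode pair counted by paired-end Illumina sequencing.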

Row | Variant | area with substrate ENLYGQS | area with substrate ENLYHQS | area with substrate ENLYIQS | area with substrate ENLYKQS | area with substrate ENLYRQS | area with substrate ENLYVQS | area with substrate ENLYEQS | area with substrate ENLYLQS | area with substrate ENLYMQS | area with substrate ENLYNQS | area with substrate ENLYPQS | area with substrate ENLYTQS | area with substrate ENLYYQS | area with substrate ENLYQQS | area with substrate ENLYSQS | area with substrate ENLYWQS
1 | Q74H | 0.0823 | 0.0567 | 0.104 | 0.0593 | 0.047 | 0.105 |  |  |  |  |  |  |  |  |  | 
2 | H62N | 0.0618 | 0.0676 |  | 0.0447 | 0.068 |  | 0.0683 | 0.082 | 0.0863 | 0.0577 | 0.0481 | 0.0924 | 0.0702 |  |  | 
3 | Q198V | 0.0791 | 0.0785 | 0.154 | 0.0583 | 0.0474 |  | 0.0649 |  |  | 0.0549 | 0.0679 |  |  | 0.095 | 0.0779 | 0.0583
4 | C111K | 0.0687 |  | 0.14 | 0.068 | 0.0753 |  | 0.0757 |  | 0.0721 | 0.0809 | 0.0779 |  |  | 0.076 | 0.0855 | 0.134
5 | F117M |  | 0.0634 | 0.169 |  | 0.0574 |  | 0.0762 |  |  | 0.0901 | 0.0675 | 0.0575 | 0.0528 | 0.0485 |  | 0.0711
6 | K120L | 0.0638 |  |  |  |  |  |  |  |  | 0.0639 | 0.0768 |  | 0.0575 | 0.0911 |  | 0.0828
7 | S182W | 0.0482 | 0.0378 | 0.0725 |  | 0.0576 |  |  |  |  |  | 0.0468 |  | 0.0433 | 0.0554 |  | 0.0533
8 | P225W | 0.0587 | 0.0417 | 0.103 | 0.102 | 0.0561 |  | 0.0647 |  | 0.0879 | 0.0507 | 0.0714 | 0.0999 |  | 0.055 | 0.0701 | 
9 | F218H | 0.0723 | 0.0658 |  | 0.0664 | 0.0657 | 0.13 | 0.133 |  |  | 0.0454 | 0.0568 | 0.0783 |  | 0.0751 | 0.0563 | 
10 | S171G | 0.0644 |  |  | 0.0764 |  |  | 0.0549 |  | 0.0474 |  |  |  |  | 0.0776 | 0.0633 | 
11 | E189I | 0.0598 | 0.0655 | 0.0852 | 0.058 |  | 0.11 | 0.063 | 0.0839 |  |  | 0.0695 |  | 0.0722 |  | 0.0753 | 
12 | E189D | 0.0811 | 0.0688 | 0.122 | 0.0552 | 0.0712 | 0.118 | 0.0781 |  |  | 0.0576 | 0.0644 |  |  |  | 0.0678 | 
13 | G35M |  |  |  | 0.0438 |  |  |  |  |  | 0.0896 |  |  |  | 0.0407 |  | 
14 | V64F |  |  |  |  | 0.0773 |  |  |  |  |  |  |  |  |  |  | 
15 | M219L |  | 0.0684 | 0.132 | 0.0298 |  |  | 0.0549 |  | 0.0818 | 0.0557 | 0.104 |  |  |  |  | 0.081
16 | F140M |  |  |  | 0.0612 | 0.0448 | 0.106 | 0.0738 |  | 0.0789 | 0.0715 |  |  |  |  | 0.0526 | 0.0565
17 | D128H | 0.094 | 0.0728 | 0.121 | 0.0672 |  | 0.151 | 0.0561 |  | 0.127 | 0.074 | 0.0804 |  | 0.0517 | 0.0601 | 0.081 | 0.08
18 | Q59V | 0.0668 | 0.0834 | 0.101 | 0.0652 |  | 0.115 |  |  |  |  |  |  | 0.0555 |  |  | 
19 | S169A | 0.066 | 0.0629 |  |  | 0.0626 | 0.122 | 0.103 |  | 0.0866 | 0.0813 | 0.0564 | 0.0653 | 0.0515 | 0.0603 |  | 0.0608
20 | T192Y |  | 0.0875 | 0.108 | 0.0469 | 0.0471 |  | 0.0596 |  | 0.0604 | 0.0684 | 0.0734 | 0.0794 |  | 0.0581 |  | 0.0814
21 | T192D | 0.0906 |  |  | 0.0607 | 0.0451 | 0.109 | 0.0646 | 0.0644 | 0.0702 | 0.0705 |  | 0.086 |  | 0.0644 | 0.0778 | 
22 | W144L | 0.0618 | 0.0681 |  |  |  |  | 0.0532 | 0.0829 | 0.0826 |  | 0.07 |  |  |  | 0.0765 | 
23 | P89F | 0.0552 | 0.05 |  | 0.0569 |  | 0.0617 | 0.0369 |  | 0.0563 | 0.0262 | 0.0446 |  | 0.0361 | 0.0579 |  | 0.0443
24 | E103Y | 0.0575 | 0.0678 |  | 0.0705 | 0.0709 |  |  |  |  | 0.0668 | 0.0569 |  |  | 0.0594 | 0.0713 | 0.0673
